According to a collection of fitness landscapes (doi:10.1016/j.celrep.2020.107928):
Over roughly 81,000 sequences, “one-hybrid fitness for binding parS DNA” has its median near -0.17; the highest 2% begin near 0.51. This is one part of the list.

B1: Caulobacter ParB omega fusion; a variant is named by its letters at X, in order, B8GW30 (parent)
chain: MESVVVGEPGMSEGRRGLGRGLSALLGEVDAAPAQAPGEQLGGSREAPIEILQRNPDQPRRTFREEDLEDLSNSIREKGVLQPILVRPSPDTAGEYQIVAGERAWRAAQRAGLKTVPIMVRELDDLAVLEIGIIENVQRADLNVLEEALSYKVLMEKFERTQENIAQTIGKSXSHVANXMRLLXLPDEVQSYLVSGELTAXHARAIAAAADPVALAKQIIEGGLSVRETEALARKAPNLSAGKSKGGRPPRVKDTDTQALESDLSSVLGLDVSIDHRGSTGTLTITYATLEQLDDLCNRLTRGI

Variants of: B1
Test: one-hybrid fitness for binding parS DNA (scaled: cognate 1, non-cognate 0); higher = stronger binding
Settings: with parS DNA site
How it was run: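 On M9-minus-histidine containing 0.1 mM IPTG and 5 mM 3-AT, E. coli USO cells with a HIS3 reporter, site 19 bp from the promoter, grew 48 hours at 37°C to select Caulobacter ParB libraries randomised at four specificity codons. Plasmids from before and after were Illumina-sequenced, with three replicate libraries pooled and variants under 10 reads left out. Fitness is the log change in variant-to-wild-type read ratio, rescaled against cognate and non-cognate.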

Variant | one-hybrid fitness for binding parS DNA
RAHR | ≤ 0.2
RQGP | ≤ 0.2
SPQL | ≤ 0.2
FKND | ≤ 0.2
PMPT | ≤ 0.2
QTGA | ≤ 0.2
HYVM | ≤ 0.2
THWY | ≤ 0.2
QGGV | ≤ 0.2
RLED | ≤ 0.2
DTHR | ≤ 0.2
NSKC | ≤ 0.2
GFIG | ≤ 0.2
ENIC | ≤ 0.2
RNRL | ≤ 0.2
HCTC | ≤ 0.2
SVPQ | ≤ 0.2
VSGC | ≤ 0.2
PWED | ≤ 0.2
VVRC | ≤ 0.2
RDWC | ≤ 0.2
NLLR | ≤ 0.2
QMAY | ≤ 0.2
DNER | ≤ 0.2

Variant | one-hybrid fitness for binding parS DNA
AYSL | ≤ 0.2
GGNQ | ≤ 0.2
VAAA | ≤ 0.2
PMYY | ≤ 0.2
GQHS | ≤ 0.2
LLNR | ≤ 0.2
PDSC | ≤ 0.2
ASRS | ≤ 0.2
ENHE | ≤ 0.2
YTTA | ≤ 0.2
SKDR | ≤ 0.2
IAMA | ≤ 0.2
CDSG | ≤ 0.2
GCEG | ≤ 0.2
VCNT | ≤ 0.2
FSLL | ≤ 0.2
DDQG | ≤ 0.2
PQHI | ≤ 0.2
SMDE | ≤ 0.2
YKNG | ≤ 0.2
ANYV | ≤ 0.2
TANS | ≤ 0.2
MVAN | ≤ 0.2
LIVR | ≤ 0.2

Variant | one-hybrid fitness for binding parS DNA
ANTI | ≤ 0.2
QGTW | ≤ 0.2
QHCE | ≤ 0.2
SHQF | ≤ 0.2
NGQY | ≤ 0.2
PTIN | ≤ 0.2
LMLE | ≤ 0.2
DCGC | ≤ 0.2
QNHI | 0.202
TCFT | ≤ 0.2
CHLV | ≤ 0.2
GGRE | ≤ 0.2
DHYY | ≤ 0.2
PVNY | ≤ 0.2
SDHV | ≤ 0.2
WVFT | ≤ 0.2
GVWG | ≤ 0.2
SFKT | ≤ 0.2
FTQR | ≤ 0.2
YTNM | ≤ 0.2
WCAK | ≤ 0.2
TDPS | ≤ 0.2
QSWW | ≤ 0.2
QYCC | ≤ 0.2

Variant | one-hybrid fitness for binding parS DNA
YKTN | ≤ 0.2
RSWF | ≤ 0.2
RHDQ | ≤ 0.2
RIHR | ≤ 0.2
CMNY | ≤ 0.2
RHVT | 0.637
GGES | ≤ 0.2
YMQK | ≤ 0.2
KHNC | ≤ 0.2
YMPC | ≤ 0.2
DIVR | ≤ 0.2
TKCR | ≤ 0.2
EGVD | ≤ 0.2
KLVF | ≤ 0.2
EMVM | ≤ 0.2
QCHW | ≤ 0.2
EDYT | ≤ 0.2
RYEC | 0.926
CHPA | ≤ 0.2
IREP | ≤ 0.2
RFKS | 0.9
HFTW | ≤ 0.2
NYHP | ≤ 0.2
VDLR | ≤ 0.2

Variant | one-hybrid fitness for binding parS DNA
YWWL | ≤ 0.2
HCQF | ≤ 0.2
ATVV | ≤ 0.2
PINR | ≤ 0.2
ERSD | ≤ 0.2
ICSA | ≤ 0.2
GSII | ≤ 0.2
YWFR | ≤ 0.2
PSTE | ≤ 0.2
GLVE | ≤ 0.2
GLAA | ≤ 0.2
DLHC | ≤ 0.2
NDRN | ≤ 0.2
NVKR | ≤ 0.2
IGKS | ≤ 0.2
LHHL | ≤ 0.2
VPHR | ≤ 0.2
RNYL | ≤ 0.2
DTRF | ≤ 0.2
CYHF | ≤ 0.2
EGML | ≤ 0.2
SNLL | ≤ 0.2
MAPS | ≤ 0.2
WIGR | ≤ 0.2

Variant | one-hybrid fitness for binding parS DNA
EPTY | ≤ 0.2
GNRL | ≤ 0.2
SWIG | ≤ 0.2
INIE | ≤ 0.2
KTYT | ≤ 0.2
DQAS | ≤ 0.2
LNFG | ≤ 0.2
TEAR | ≤ 0.2
KKTF | ≤ 0.2
MHGG | ≤ 0.2
PPKL | ≤ 0.2
SRKN | ≤ 0.2
TSLW | ≤ 0.2
EWDK | ≤ 0.2
MSQT | ≤ 0.2
LILR | ≤ 0.2
GTNP | ≤ 0.2
VLHG | ≤ 0.2
VCYG | ≤ 0.2
TNVS | ≤ 0.2
TGWR | ≤ 0.2
ESDL | ≤ 0.2
GDYY | ≤ 0.2
PMYR | ≤ 0.2

Variant | one-hybrid fitness for binding parS DNA
RTQN | 0.442
EFAV | ≤ 0.2
VYLC | ≤ 0.2
RLLA | 0.605
TNQW | ≤ 0.2
HSYC | ≤ 0.2
RRAY | 0.396
YVAV | ≤ 0.2
LTAT | ≤ 0.2
ITVF | ≤ 0.2
TYNW | ≤ 0.2
PEIC | ≤ 0.2
LWIS | ≤ 0.2
QHPY | ≤ 0.2
RPYN | ≤ 0.2
YMYF | ≤ 0.2
TDES | ≤ 0.2
VTPW | ≤ 0.2
HTLG | ≤ 0.2
GAQS | ≤ 0.2
HHGC | ≤ 0.2
RDNA | ≤ 0.2
VQPL | ≤ 0.2
TGLA | ≤ 0.2

Variant | one-hybrid fitness for binding parS DNA
YIGR | ≤ 0.2
KYTG | ≤ 0.2
FKLS | ≤ 0.2
PQQV | ≤ 0.2
RVHV | ≤ 0.2
WFVF | ≤ 0.2
VLIT | ≤ 0.2
TGKT | ≤ 0.2
DLRT | ≤ 0.2
TQEI | ≤ 0.2
VEDF | ≤ 0.2
VLSP | ≤ 0.2
DVFT | ≤ 0.2
LFPT | ≤ 0.2
EQGR | ≤ 0.2
RKVQ | ≤ 0.2
LSTP | ≤ 0.2
RGNP | ≤ 0.2
RKWD | ≤ 0.2
GLSP | ≤ 0.2
VLYC | ≤ 0.2
CNFR | ≤ 0.2
QCRY | ≤ 0.2
NQTT | ≤ 0.2

Variant | one-hybrid fitness for binding parS DNA
DYWL | ≤ 0.2
IYKS | ≤ 0.2
CSTG | ≤ 0.2
VSLV | ≤ 0.2
NSIV | ≤ 0.2
AQHT | ≤ 0.2
TCQD | ≤ 0.2
VRQR | ≤ 0.2
QLPY | ≤ 0.2
SYAG | ≤ 0.2
YRHR | ≤ 0.2
HQRR | ≤ 0.2
FSNC | ≤ 0.2
ASDC | ≤ 0.2
KRRA | ≤ 0.2
WAPA | ≤ 0.2
EYYT | ≤ 0.2
RDVL | ≤ 0.2
IRPW | ≤ 0.2
IRTW | ≤ 0.2
HGPR | ≤ 0.2
LPLV | ≤ 0.2
STFQ | ≤ 0.2
RFYP | ≤ 0.2

Variant | one-hybrid fitness for binding parS DNA
DSLS | ≤ 0.2
SDCT | ≤ 0.2
RGVQ | ≤ 0.2
NKPQ | ≤ 0.2
WSTN | ≤ 0.2
QPFC | ≤ 0.2
RATS | 1
NRGS | ≤ 0.2
KSCS | ≤ 0.2
KAYS | ≤ 0.2
VDVY | ≤ 0.2
GDYN | ≤ 0.2
LKTI | ≤ 0.2
CRSS | ≤ 0.2
FSLG | ≤ 0.2
RHPV | ≤ 0.2
NDSC | ≤ 0.2
TIQD | ≤ 0.2
NNEG | ≤ 0.2
NISG | ≤ 0.2
CKWS | ≤ 0.2
LEQP | ≤ 0.2
PAGV | ≤ 0.2
YYPK | ≤ 0.2

Variant | one-hybrid fitness for binding parS DNA
RFFR | ≤ 0.2
FITR | ≤ 0.2
HRHV | ≤ 0.2
CLSL | ≤ 0.2
GILF | ≤ 0.2
FMMS | ≤ 0.2
LTHY | ≤ 0.2
MVTR | ≤ 0.2
QWMW | ≤ 0.2
RYKY | 0.514
CLYR | ≤ 0.2
PRLI | ≤ 0.2
RGET | 0.308
PYVR | ≤ 0.2
YTCA | ≤ 0.2
WKNT | ≤ 0.2
PPVS | ≤ 0.2
APTM | ≤ 0.2
GSDA | ≤ 0.2
KHFR | ≤ 0.2
TCPR | ≤ 0.2
QPYS | ≤ 0.2
FADW | ≤ 0.2
AIQF | ≤ 0.2

Variant | one-hybrid fitness for binding parS DNA
NFYR | ≤ 0.2
RKTA | 0.746
YSKV | ≤ 0.2
ETEM | ≤ 0.2
YTCL | ≤ 0.2
CRMG | ≤ 0.2
DGND | ≤ 0.2
SLFT | ≤ 0.2
CNMR | ≤ 0.2
LDTQ | ≤ 0.2
AGQR | ≤ 0.2
KSEW | ≤ 0.2
HRTT | 0.206
LVPL | ≤ 0.2
NMWT | ≤ 0.2
TVSP | ≤ 0.2
TDGC | ≤ 0.2
QQEE | ≤ 0.2
TLNG | ≤ 0.2
EVRW | ≤ 0.2
RLVT | 0.844
SECG | ≤ 0.2
TWFS | ≤ 0.2
AQDF | ≤ 0.2

Variant | one-hybrid fitness for binding parS DNA
CYQS | ≤ 0.2
DGTV | ≤ 0.2
AQER | ≤ 0.2
ISHF | ≤ 0.2
RKDS | 0.886
QRPC | ≤ 0.2
TKIR | ≤ 0.2
AGLE | ≤ 0.2
PQQG | ≤ 0.2
PCQP | ≤ 0.2
GSMS | ≤ 0.2
TDKI | ≤ 0.2
ARYA | ≤ 0.2
ASYY | ≤ 0.2
MIDT | ≤ 0.2
MHIG | ≤ 0.2
GRVT | ≤ 0.2
TTWC | ≤ 0.2
